Results taken from paper PMC12136788.
This is one part of the list.

T1: UNK ZnF1-3 (human, UniProt Q9C0B0 31-174)
T1 sequence: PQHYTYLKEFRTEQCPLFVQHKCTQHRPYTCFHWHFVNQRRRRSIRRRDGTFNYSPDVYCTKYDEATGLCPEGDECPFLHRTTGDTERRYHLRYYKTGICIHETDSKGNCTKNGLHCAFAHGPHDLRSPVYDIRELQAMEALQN

B1: chr2:132618855:132618856:+_ENSMUSG00000027350_ENSMUST00000028826|mus_hu|FALSE|FALSE (ssRNA)
RNA: GGGAGUUCUACAGUCCGACGAUCUUCAGGUUCUUCCUCUGAAGCCCUGUAGUGGGUUGAAUGGUGGUCCCUCUUUUCCCCUAAACUGGCCAUGCUGACGUUUGACUCCUCAGAUUCCUCCUGGGGGUGUCCCUUUUCCUCAGACAACAGAGGAUUGAGCAUCA
B2: chr2:216981417:216981418:+_ENSG00000079246_ENST00000392132|hu_hu|hu_hu_hu_mus_True|1_98 (ssRNA)
RNA: GGGAGUUCUACAGUCCGACGAUCCUGAUACUGGUCCCCACCAGAAAGGGCAUUAUCAGUGCCAUCUGUGCCAUAGAGGACUAACGCAAUCUCAUCUUUGCUCUCCGAAAAUACCUGUCGUUGGACAAACAUAGUCAUCACCUUCAACAGAGGAUUGAGCAUCA
B3: chrX:45547847:45547848:-_ENSMUSG00000036985_ENSMUST00000037960|mus_hu|FALSE|FALSE (ssRNA)
RNA: GGGAGUUCUACAGUCCGACGAUCAGGGUCACUGAAGCUGGUCCUCAACAGUGUAGCCAUGGAGAAAAGGAAGAGCAUGGCAGCAAAUACAGGGAUGGCAGGAGACAGCUGAACAGCCAGGUAGCGGCACUCAAAGGCGAAGAACAACAGAGGAUUGAGCAUCA
B4: chrX:71549400:71549401:+_ENSMUSG00000019087_ENSMUST00000019231|mus_hu|mus_mus_mus_hu_False|48_108 (ssRNA)
RNA: GGGAGUUCUACAGUCCGACGAUCGCAAGGAAGAGGAGGAAGCUCUUCAGUCCAGUGCGCUGCAGGGUGGGAAAGCAACAACACGGAACCAAUACUCCCCUCAACCCCCCCACUGGCACAGGGUCACACAAUCUGGGUCAAAGACAACAGAGGAUUGAGCAUCA
B5: chr1:230810825:230810826:+_ENSG00000135775_ENST00000366669|hu_hu|FALSE|FALSE (ssRNA)
RNA: GGGAGUUCUACAGUCCGACGAUCUUUCUCAUGAAAUGCAUCGGGAUUCCCAGGAUUAAAAAGCGAGGGUAACUUUUCUUCUAAUCCUUGUACUAUUUGUGGCCAAACAGAAUUCACCAAAAAGUCAUAUCCAGGAACAGUAUUCAACAGAGGAUUGAGCAUCA
B6: chrX:98862621:98862622:+_ENSMUSG00000034160_ENSMUST00000044475|mus_hu|mus_mus_mus_hu_False|68_88 (ssRNA)
RNA: GGGAGUUCUACAGUCCGACGAUCCUGCAUCUCCUUUAGAGUGUUUCCCAUAUUGGAGUAGGCAUCAGCAAAUGUAGGACUGAUUCGAAUAGCCUCCUUAUAAUGCAUCAGAGCUUCCUGCAGUUUUCCCUGCUGCUGCAGUACCAACAGAGGAUUGAGCAUCA
B7: chr16:94653416:94653417:+_ENSMUSG00000040785_ENSMUST00000117648|mus_mus|FALSE|FALSE (ssRNA)
RNA: GGGAGUUCUACAGUCCGACGAUCCACGACGUGGAAAUCAAGCUCCUUGAGAGAUGCUCCGUACCGAGUGAAAAAGGGUCCUAUGGCAUCCAAGCCAAAACUAUUCAGUCUCUGGAUCCAGGGAGCCAACUUGGGGUCUAACUCCAACAGAGGAUUGAGCAUCA
B8: 31863339_31864431_815_CDS_ENSG00000129493_ENST00000543095|human|control|control (ssRNA)
RNA: GGGAGUUCUACAGUCCGACGAUCGGAACCUUCAAAGGACUUAAAACACAGUGUGGCCACACUGUCCAGGUCCGUACUCCACAUAAAGAUGGCUUCAUUCUGAAGUUCAAGGAGACACUUUGCAGCAGCACAACGAACAGCCAUCAACAGAGGAUUGAGCAUCA
B9: 176637440_176637560_2145_CDS_ENSG00000165671_ENST00000439151|human|control|control (ssRNA)
RNA: GGGAGUUCUACAGUCCGACGAUCCUCUGCACUCUUAGUACAACCCAUUAAGUGGUCUGUAUGUGAGUUACUAAUGAGAGGCUUCUGUUUUGCUUUUACCCUAGUGUUUGUGGCAGCAAACCUAGAAUACUUUAUCUUUUCAUUCAACAGAGGAUUGAGCAUCA
B10: 18893549_18895400_1583_CDS_ENSG00000157106_ENST00000446231|human|control|control (ssRNA)
RNA: GGGAGUUCUACAGUCCGACGAUCCCUCACCACAGUACUAAAUACCCGGAGAAGUGCAGCCAGCUUUGGUAAUGACACUGAUGGAGGAGGGACAUCUUCAUCCACUGAUUCCCCAGAGGCCACAUGGCUGAGGUCCUCAGCAUACAACAGAGGAUUGAGCAUCA
B11: chr2:5814250:5814251:-_ENSMUSG00000025816_ENSMUST00000102981|mus_hu|mus_mus_mus_hu_True|1_58 (ssRNA)
RNA: GGGAGUUCUACAGUCCGACGAUCUUCCUUUCCGGUUUCUGAAUUUCUGGUAGAACUGCACAGAAUGGUUUGAUAACUUCUAAAAACUUGAUGCCCAUGGCUGCUGCUGGGGAGGCCCAGGGGGAAACCGCGGCCUCGCAGCUGCAACAGAGGAUUGAGCAUCA
B12: chr2:179515052:179515053:+_ENSMUSG00000000305_ENSMUST00000000314|mus_hu|mus_mus_mus_hu_False|18_58 (ssRNA)
RNA: GGGAGUUCUACAGUCCGACGAUCGCUGUCCCAUGCAGUCACCGUGAACGCCACCUGCUCGGAGGGGACCUGCAGCUCCCUAGUGGCGAAGACUGUCCCAUCUGCCCCAACUUUGAAGUCCAAGCUGUUGGUCUCAUAUUGUGUCAACAGAGGAUUGAGCAUCA
B13: chr1:171882756:171882757:-_ENSMUSG00000026675_ENSMUST00000027989|mus_mus|motif|central (ssRNA)
RNA: GGGAGUUCUACAGUCCGACGAUCGAGGAAAAACAAGAAGUAGAAGUCCUACCCAGUGGCAUUGCCCCUCCGUGCUGAGACGGAAAGAAGCUUCAGGCUGUACUGUGUCCCCAUCACACAAGUCAAAACUACUGGGCUCUAGGACAACAGAGGAUUGAGCAUCA
B14: 55802173_55802293_2024_3pUTR_ENSMUSG00000045767_ENSMUST00000057844|mouse|control|control (ssRNA)
RNA: GGGAGUUCUACAGUCCGACGAUCAUGCUGAGAUCAAAUUCAUGGACCACCACACCUGGCCCAGGGAAAGCUUCUCAACUUCAAAGUUCAUAAUAUUUUACUUAGAACUCAGAAUAAAUAAAAUGUGUAUUAACACUAGGGAGACAACAGAGGAUUGAGCAUCA
B15: chr1:60041781:60041782:+_ENSMUSG00000041040_ENSMUST00000036540|mus_hu|mus_mus_mus_hu_False|28_48 (ssRNA)
RNA: GGGAGUUCUACAGUCCGACGAUCAAGUUUACAAUAGUAAAGUAAAUGCAGUAGUGGCAAAUUUUCUUUUAUUUUCCUUCACAAAAGAAAACCUCAGUAACCCAGUCCAAUCCCAGAACAUAGUGAAAGCUAUAAAUUCUGACUCAACAGAGGAUUGAGCAUCA
B16: chr2:74714714:74714715:+_ENSMUSG00000027099_ENSMUST00000028511|mus_mus|FALSE|FALSE (ssRNA)
RNA: GGGAGUUCUACAGUCCGACGAUCAUGCUCAUAAAGAAAGAAAAUGUCAAGAUAUAGAAUUUAAUGUAACAAAUCAAACAAUUCAAAAGCAAAGUGUACACAAAUAACAGUACAAAGGACAUGUAUAUGACAUUAUGCAAAUUUCAACAGAGGAUUGAGCAUCA
B17: 68597113_68597233_518_CDS_ENSG00000184939_ENST00000398253|human|control|control (ssRNA)
RNA: GGGAGUUCUACAGUCCGACGAUCCCUUAUUCUUGCAGGAAUGUUCAGUUGUGUAACCAAAUUGGUGUUCAAUCUAGAAUUUUCACCAAAUUUAUUUUGCUCAAAAUUUUCUUGUGGUGUAAUUAUUUUCUUCUGGGUGGAUGCCAACAGAGGAUUGAGCAUCA
B18: chr9:44212477:44212478:-_ENSMUSG00000032112_ENSMUST00000034623|mus_mus|FALSE|FALSE (ssRNA)
RNA: GGGAGUUCUACAGUCCGACGAUCUGGAUUCUUGAGGGCAAAGUCUGAGUAAAUUUCAUAAAUUUUUCGGAGAAGAGAAUCUAUUCCAGCUUGCCUAGGGUCUGCCAGGACCACAAACUUGAUCCCUGUCAGUGUUUGGAAGCACAACAGAGGAUUGAGCAUCA
B19: chr4:71639242:71639243:+_ENSG00000018189_ENST00000226328|hu_hu|motif|central (ssRNA)
RNA: GGGAGUUCUACAGUCCGACGAUCACCGUCUCCUUCAGUACCUUUACUGCUGUUCCCGUCCUUGAGAUACAUUGAAAAAUCGGUAACUCCAACCUGAGAGUCCAAGUCUUCUCCUUUCAUACAGAAAUUGGCAUCAAUGACAUUCAACAGAGGAUUGAGCAUCA
B20: 102171521_102173921_3878_CDS_ENSMUSG00000021182_ENSMUST00000068411|mouse|control|control (ssRNA)
RNA: GGGAGUUCUACAGUCCGACGAUCCUCCCCUUUCAGCUGCUGGUGCAGGAAGCUGAUCCUGUCCAGCUCUCCUCGAAGCCUCUGGUUCUCGCUCGUGGCAAUGGCGUUGGUCUUCUGCUCCCGCUCAAGUGCCUCCCGCUCGGUCAACAGAGGAUUGAGCAUCA
B21: chr9:91949571:91949572:+_ENSG00000187742_ENST00000375807|hu_mus|motif|central (ssRNA)
RNA: GGGAGUUCUACAGUCCGACGAUCAUAAACACGCUUUUCUCUGUUGUAGGAAGGAUUUGAAGAUAAAGCCUCAGAUGUCACACGGACAUUUUUAGCAUCAGCUGAUGAAGUAGUCUUCUUUAGGUUUAUCAUGGAAGUCACAUUCAACAGAGGAUUGAGCAUCA
B22: 82409419_82415958_1440_CDS_ENSG00000117114_ENST00000319517|human|control|control (ssRNA)
RNA: GGGAGUUCUACAGUCCGACGAUCGCCUUUCUGUGAAGUAGUGCUUGUGGUUGAUAUUAUGGUUUUGAACAGCUCAGCUGAAGAAGUUAUUGUCACAGCUGUGGUAGGCACUUGGGCAGGAUCAGGUGGACCAAACUCCAGAGACAACAGAGGAUUGAGCAUCA

Target: T1, UNK ZnF1-3
Test: nsRBNS (natural sequence RNA bind-n-seq); RBNS binding buffer (assumed for nsRBNS): 25 mM Tris pH 7.5, 150 mM KCl, 3 mM MgCl2, 0.01% Triton X-100, 500 ug/ml BSA, 20 U/ml SUPERase-In, 4 C; UNK is unkempt and MSI1 is Musashi-1; names of the RNAs are library labels; protein concentration not given here; high values mean tight binding

| Binder | binding signal [enrichment R] |
| --- | --- |
| B1 | 0.708 |
| B2 | 0.992 |
| B3 | 1.89 |
| B4 | 1.7 |
| B5 | 1.23 |
| B6 | 1.05 |
| B7 | 0.983 |
| B8 | 0.971 |
| B9 | 0.407 |
| B10 | 1.25 |
| B11 | 0.786 |
| B12 | 0.765 |
| B13 | 0.932 |
| B14 | 1.18 |
| B15 | 0.788 |
| B16 | 1.58 |
| B17 | 0.728 |
| B18 | 1.18 |
| B19 | 1.18 |
| B20 | 0.689 |
| B21 | 0.98 |
| B22 | 1.33 |
